# Measured values taken from PubChem BioAssay AID588855 (National Center for Advancing Translational Sciences (NCATS), 2011).
# The campaign covered roughly 410,000 compounds. About 5,000 (1.2%) were called active. Inconclusive results, whose numbers are uncertain, are shown with a selection of clear calls. Calls come from the whole dose curve; as a rule, active = well fitted inhibition curve with a large enough effect; inconclusive = small, poorly fitted or top-dose-only effect; inactive = no such curve, though single readings can be large or run the other way. Potencies of inconclusive entries are doubtful fits and often do not repeat.
# Experiment: qHTS for Inhibitors of TGF-b; note: nearly all actives have a fitted effect of over 65% in size
# Details: HepG2 CAGA-GFP TGF-b/SMAD3 reporter, GFP fluorescence, 18 h, TGF-beta stimulated, 500 pg/mL final; series mostly up to 46.1 µM
# Summary of the method: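 HEPG2 CAGA-GFP reporter cells (1000/well, DMEM with 1% FBS) received compounds, then recombinant TGF-beta at 500 pg/mL final for 18 hours at 37 degrees C. Per-cell GFP summed per well was normalised to unstimulated and stimulated DMSO controls before curve fitting.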
# Potency is the fitted concentration of half-maximal effect; tags give direction and shape of the fitted curve.
row,Structure (SMILES),Potency
1,COc1ccc(CCNC(=O)c2ccc(Cl)c(S(=O)(=O)N3CCCCCC3)c2)cc1,"inconclusive: 8.91 µM [inhibitor, partial curve, poor fit]"
2,CCCNC(=O)C1(C)CCN1C(=O)c1ccccc1CCc1ccccc1 (configuration not stated),"inconclusive: 28.2 µM [inhibitor, single point]"
3,O=S(=O)(c1ccc(-c2cnc(C3CC3)o2)cc1)N1CCN(c2cccc(Cl)c2)CC1,"inconclusive: 22.4 µM [inhibitor, partial curve, poor fit]"
4,CC1C(=O)Nc2ccc(S(=O)(=O)NCCc3ccc(Cl)cc3)cc2NC1=O (configuration not stated),inactive
5,COC(=O)[C@@]1(Cc2ccc(F)cc2)[C@H]2c3cc(C(=O)N(C)C)n(Cc4ccccn4)c3C[C@H]2CN1C(=O)c1ccccc1,"inconclusive: 35.5 µM [inhibitor, single point]"
6,C=CCNC(=S)NNc1nc2c(c(=O)[nH]1)C1(CCCC1)Cc1ccccc1-2,"inconclusive: 20 µM [inhibitor, single point]"
7,Cc1cccc(C(=O)Oc2c(Sc3ccccc3)c(C)nn2C(C)(C)C)c1,"inconclusive: 35.5 µM [inhibitor, single point]"
8,CCOc1ccc(NS(=O)(=O)c2ccc(NS(=O)(=O)c3ccc(SC)cc3)cc2)cc1,"inconclusive: 35.5 µM [inhibitor, single point]"
9,CC(C)(C)C(=O)Nc1cc(S(=O)(=O)N2CCCCC2)ccc1N1CCCCC1,"inconclusive: 15.8 µM [inhibitor, single point]"
10,O=C(c1cc(C2CC2)nn1-c1ccccc1)N1CCN(Cc2ccc(Cl)cc2)CC1,"inconclusive: 35.5 µM [inhibitor, single point]"
11,O=C(c1cc2cc(Cl)ccc2[nH]1)N1CCN(Cc2ccc3c(c2)OCO3)CC1,"inconclusive: 35.5 µM [inhibitor, single point]"
12,CC(=O)C1=C(C)N(Cc2ccccc2)C(=O)N[C@H]1c1cccc(C(F)(F)F)c1,"inconclusive: 35.5 µM [inhibitor, partial curve, poor fit]"
13,COCC(C)Nc1ncnc2c1cnn2-c1ccc(C)c(C)c1 (configuration not stated),inactive
14,Cn1c(-c2cccc([N+](=O)[O-])c2)cnc1NCc1cccc(F)c1,inactive
15,Cc1ccnc(NC(=O)CSc2cc(=O)n(C)c3ccccc23)c1,"inconclusive: 35.5 µM [inhibitor, single point]"
16,Cc1c(CCOC(=O)C2C3CC4CC(C3)CC2C4)sc[n+]1CC(=O)c1ccc(Br)cc1 (configuration not stated),"inconclusive: 35.5 µM [inhibitor, single point]"
17,COc1ccc(-n2nc(C(=O)NCc3ccc(F)cc3Cl)c3c4ccccc4n(C)c3c2=O)cc1Cl,"inconclusive: 35.5 µM [inhibitor, single point]"
